About 4,300 (8.3%) of roughly 52,000 compounds were called active. Cut-off read from the data, not from the text of the source: active = survival mostly below about 52% (no sharp cut-off); inactive = mostly above about 56%. This is one part of the list.

Survival data for 88 molecules are collected here from PubChem BioAssay AID463173 (ICCB-Longwood Screening Facility, Harvard Medical School, 2010).

For the test, the system named is DeltatarO mutant. As to the kind of experiment: S. aureus survival, RN4220 and DeltatarO strains – OD600, teichoic acid synthesis inhibitors, primary screen (AID 463173). Particulars: S. aureus RN4220 wild type/DeltatarO growth, OD600, 18 h, active compounds read low, screened at 18.75 µg/mL (by protocol).
With `CCOc1ccccc1NC(=O)CCc1c(C)nc2cc(-c3ccccc3)nn2c1C`, the survival was inactive: 46%. With `Cc1ccc(NC(=O)CN(c2ccc(C)cc2)S(=O)(=O)c2cccc3nonc23)cc1` the figure was inactive: 86%; with `CCCCn1c(CNC(=O)C23CC4CC(CC(C4)C2)C3)nnc1SCC(=O)Nc1ccc(F)cc1`, active: 54%.

For the molecule `Cc1cccc(NC(=O)Nc2nnc(N3CCCC3)s2)c1`, the survival is inactive: 103%. On to `Cc1cccc(Cn2c(=O)n(Cc3ccccc3)c(=O)c3sc4ccccc4c32)c1`, for which the survival was inactive: 93%. As for `Cc1cc(C(=O)NCc2ccccc2)c2c(C)nn(-c3cccc(Cl)c3C)c2n1`, the figure is inactive: 134%. As to `Cc1ccccc1C(=O)Nc1ccccc1-c1nc(-c2ccccc2)no1`, the survival is inactive: 91%. Regarding `Cc1nc(-c2cccc(F)c2)sc1CCNC(=O)C(=O)Nc1ccc2c(c1)OCCO2`, the survival is inactive: 71%. Take `CCc1nc2nc(C)c(NS(=O)(=O)c3ccc(F)c(C)c3)c(=O)n2[nH]1`: the survival was inactive: 123%. `CCOc1ccc2nc(N3CCCC(C(=O)NCCc4ccc(C)cc4)C3)sc2c1` (stereo not drawn): the survival is inactive: 64%. As for `Cc1ccc(NC(=O)CSc2nc3ccccc3n2CC(=O)N(C)C2CCCCC2)cc1C`, the figure is inactive: 94%; as for `CC(C(=O)Nc1ccccc1)n1nnc2sc3c(c2c1=O)CCCC3` (stereo not drawn), inactive: 61%; as for `CCc1nc2ccc(NC(C)=O)cc2c(=O)n1Cc1ccccc1`, inactive: 79%. With `Cc1cccc(NC(=O)COc2ccc3oc4c(c3c2)CCCC4)c1`, the survival was active: 40%. Turning to `COc1ccc(Cl)cc1NC(=O)Cn1nc(C(F)(F)F)cc1C`, the survival is inactive: 74%. Take `CC(C)OC(=O)CSc1nnnn1C`: the survival was inactive: 75%.

Turning to `COc1ccc(CNC(=O)C(=O)NCC(c2cccs2)S(=O)(=O)c2cccs2)cc1` (stereo not drawn), the survival was inactive: 89%. Consider `O=C(CCc1nc(-c2cccs2)no1)Nc1ccc([N+](=O)[O-])cc1`, for which the survival is inactive: 92%. In the case of `N#CSc1ccc2nc(N)sc2c1`, the survival is inactive: 66%. For `Cc1ccc(S(=O)(=O)C(CNS(=O)(=O)c2ccc(F)c(C)c2)c2cccs2)cc1` (stereo not drawn), the survival was inactive: 98%. With `O=C(NCCS(=O)(=O)N1CCN(c2ccccc2F)CC1)C1CC(=O)N(c2ccc(F)cc2)C1` (stereo not drawn) the figure was inactive: 90%. As for `CCc1ccccc1N(CC)C(=O)Cn1nc(Cc2ccncc2)c2ccccc2c1=O`, the figure is inactive: 78%; as for `Cc1ccc(-n2cnc3cc(C(=O)NCCC4=CCCCC4)ccc32)cc1Cl`, inactive: 92%. For `CCOc1ccc(OCC)c(NC(=O)C2CCCN(S(=O)(=O)c3ccc(C)cc3)C2)c1` (stereo not drawn), the survival was inactive: 60%. As for `CCCN(CCC)C(=O)Cn1c(=O)n(-c2ccc(Cl)c(Cl)c2)c(=O)c2c(C)c(C(=O)N(C)C)sc21`, the figure is inactive: 115%; as for `CCN(CC)S(=O)(=O)c1ccc(NC(=O)c2ccccc2)cc1`, inactive: 77%. With `O=C(Cn1c(=O)n(-c2ccccc2Cl)c(=O)c2sc3ccccc3c21)NC1CCCC1` the figure was inactive: 107%; with `CCOc1ccc(-c2nnc(SCC(=O)N(CC)c3cccc(C)c3)o2)cc1`, inactive: 63%; with `Cc1ccn2c(Nc3ccc4c(c3)OCCO4)c(-c3ccc(N(C)C)cc3)nc2c1`, inactive: 102%.

Turning to `COc1ccccc1CNC(=O)CSc1cc(C)[nH]c(=O)n1`, the survival is inactive: 99%. As for `COc1ccc(-c2c(C)nn3c(N4CCN(c5cc(Cl)ccc5C)CC4)cc(C)nc23)cc1OC`, the figure is inactive: 85%; as for `O=C(NCc1ccccc1Cl)c1ccc(-n2cnc3cccnc32)cc1`, inactive: 71%. With `CCOc1ccccc1NC(=O)Cn1nc(N2CCN(c3ccccc3)CC2)ccc1=O` the figure was inactive: 82%.

For the molecule `Cn1c(/C(C#N)=C/c2ccc(C(F)(F)F)cc2)nc2ccccc21`, the survival was inactive: 103%. On to `Cc1ccc(CNC(=O)CSCc2nc(-c3cccc(C)c3)oc2C)cc1`, for which the survival was active: -5%. With `CCC(NC(=O)Nc1cccc(C)c1)c1c(-n2cccc2)sc2c1CCN(C)C2` (stereo not drawn) the figure was inactive: 95%. As for `O=C(CCC1N=C2c3ccccc3N=C(SCC(=O)NCCc3ccccc3)N2C1=O)NCc1ccc(F)cc1` (stereo not drawn), the figure is inactive: 57%; as for `Cc1ccc(C)c(OC(=O)CSc2nnc(-c3cccs3)o2)c1`, inactive: 75%. For the molecule `COc1ccc2c(c1)CC(C(=O)NCCc1ccc(S(N)(=O)=O)cc1)CO2` (stereo not drawn), the survival was inactive: 79%.

On to `CCCC(=O)Nc1cc(-c2nnc3c4ccccc4c(C)nn23)ccc1C`, for which the survival is inactive: 82%. With `COc1cc2ccccc2cc1C(=O)N1CCN(c2nc3c(F)cc(F)cc3s2)CC1` the figure was inactive: 128%; with `CCOC(=O)C1CCN(C(=O)CSc2n[nH]c(-c3ccc(OC)cc3)n2)CC1`, inactive: 124%. `COc1ccccc1N1CCN(C(=O)c2cc3c(-c4ccccc4F)nn(C)c3s2)CC1`: the survival was active: 46%. With `Cn1c(=O)n(C)c2cc(N3CCOCC3)c(NS(=O)(=O)c3ccc(Cl)cc3)cc21` the figure was inactive: 75%. As for `CCOC(=O)Cn1c(CN2CCN(c3ccc(OC)cc3)CC2)nc2c1c(=O)[nH]c(=O)n2C`, the figure is inactive: 90%. As for `COc1ccc(CCNC(=O)Cn2c(-c3ccc(F)cc3)cc(C(C)=O)c2C)cc1OC`, the survival was inactive: 68%. With `CCOc1ccccc1NC(=O)CSc1ccc2nc(-c3ccccc3)cn2n1` the figure was inactive: 94%; with `COC(=O)c1ccccc1NC(=O)Cn1c(=O)n(CCCC(=O)NCc2ccccc2Cl)c(=O)c2ccccc21`, inactive: 69%; with `O=C(Cn1cnc2c(nc3n2CCCCC3)c1=O)Nc1cccc(C(F)(F)F)c1`, inactive: 83%. As for `CCOc1ccc(/C=C/c2nc(C#N)c(NCCCN(C)C)o2)cc1`, the figure is inactive: 93%; as for `O=C(COc1ccccc1Cl)N(Cc1cccc(F)c1)C1CCS(=O)(=O)C1` (stereo not drawn), inactive: 77%. In the case of `CCOc1ccc(/C=N/n2nnnc2N)cc1OCC`, the survival was inactive: 75%. For the molecule `CCOc1ccc(CNC(=O)C2CCCN(c3nn4cc(-c5ccc(F)cc5)nc4s3)C2)cc1` (stereo not drawn), the survival was inactive: 67%.

As to `COc1ccc(N2CCN(CCCNC(=O)c3ccc4nc(Cc5ccccc5)oc4c3)CC2)cc1`, the survival is inactive: 93%. As for `COc1ccc(-n2c(=O)c3c(c4cc(OC)ccc4n3C)n(CC(=O)N3CCCC3)c2=O)cc1`, the figure is inactive: 102%. Consider `CCc1ccc(NC(=O)CCCc2nnc3n(CCCOC)c(=O)c4sccc4n23)cc1`, for which the survival is inactive: 85%. As to `Cc1ccc(NC(=O)C(C)Sc2nc3c(c(=O)[nH]2)CCCC3)cc1Cl` (stereo not drawn), the survival was inactive: 56%. With `CSc1cccc(NC(=O)CN2C(=O)CCc3cc(S(=O)(=O)N4CCCCC4)ccc32)c1`, the survival was inactive: 58%. `CC1CCN(C(=O)CSc2nnc(NC(=O)Nc3ccccc3)s2)CC1`: the survival was inactive: 73%. `COC(=O)c1ccccc1NC(=O)Cn1c(CCC(=O)O)ccc1-c1ccc(C)cc1`: the survival was active: 45%. With `Cc1ccc2c(c1)N(C(=O)CCC(=O)NCc1cccs1)CC(C)O2` (stereo not drawn) the figure was inactive: 62%; with `CCOC(=O)C1CCN(C(=O)Cn2ncc3c4ccccc4n(Cc4ccccc4)c3c2=O)CC1`, inactive: 81%; with `Cc1cccc(CC(=O)Nc2c(C(=O)Nc3cccc(F)c3)oc3ccccc23)c1`, inactive: 57%. With `CCOC(=O)c1c(NC(=O)COc2ccc(C(C)(C)C)cc2)sc2c1CCCC2` the figure was inactive: 75%; with `Cc1ccc(NC(=O)c2c(C)nn(-c3ccccc3)c2-n2cccc2)c(Cl)c1`, inactive: 79%. For the molecule `Cc1ccc(N2C(=O)CCSC23C(=O)N(Cc2ccc(F)cc2)c2ccccc23)cc1` (stereo not drawn), the survival was inactive: 90%. `CCOc1cccc(C(=O)N(Cc2ccc(F)cc2)Cc2ccco2)c1`: the survival was inactive: 51%.

As for `O=C1CC(c2ccc(F)cc2F)c2cc3c(cc2N1)OCO3` (stereo not drawn), the survival is inactive: 140%. Turning to `COc1ccc(Cl)cc1NC(=O)C1CCN(S(=O)(=O)c2ccc(F)cc2)CC1`, the survival was active: 43%.

Take `COc1ccc(OC)c(NC(=O)Cn2c(=O)n(-c3ccc(Cl)cc3)c(=O)c3c(C)c(C)sc32)c1`: the survival is inactive: 90%. As to `Cc1ccc(N2C(=O)CS(=O)(=O)C23C(=O)N(Cc2ccc(Cl)cc2)c2ccccc23)cc1C` (stereo not drawn), the survival is inactive: 69%. In the case of `COCCn1c(SCC(=O)c2ccc(F)cc2)nc2cc(C(=O)NC3CCCC3)ccc2c1=O`, the survival was inactive: 94%. With `Cc1ccc2nc(CN3CCN(S(=O)(=O)c4ccc(C)c(C)c4)CC3)oc2c1` the figure was inactive: 87%; with `O=C(Nc1ccc2oc(-c3ccc4ccccc4c3)nc2c1)c1cc(Cl)ccc1Cl`, inactive: 86%. As for `Cc1ccc(C2CC(=O)n3nc(-c4cccc(C)c4)nc3S2)cc1` (stereo not drawn), the figure is inactive: 97%; as for `COc1cc(-c2ccno2)ccc1S(=O)(=O)N1CCN(c2ccccc2)CC1`, inactive: 72%; as for `CC(C)C(=O)Nc1nnc(SCc2cc(=O)n3ccccc3n2)s1`, inactive: 86%. Regarding `CN(C)c1ccc(CNC(=O)C2CCN(S(=O)(=O)c3ccc4[nH]c(=O)ccc4c3)CC2)cc1`, the survival was inactive: 101%.

Regarding `Cc1ccc(NC(=O)CCSc2nc(-c3ccc4c(c3)OCO4)cc(C(F)(F)F)n2)c(C)c1`, the survival is inactive: 66%.

As to `CCOc1ccccc1C(=O)NCc1ccc2c(c1)CCN2C(=O)c1ccccc1`, the survival was inactive: 72%. Take `Cc1cc(C)c2oc(-c3cccc(NC(=O)COc4ccccc4Cl)c3C)nc2c1`: the survival was active: 42%. With `Cc1cccc(Nc2nc3c(S(=O)(=O)c4ccc(Br)cc4)nnn3c3ccsc23)c1C` the figure was inactive: 44%; with `Cc1cc(NC(=O)CSc2ncc(C(=O)Nc3ccc(C)c(C)c3)c(=O)n2C)no1`, inactive: 99%; with `CC1=C(C(=O)Nc2cccnc2)C(c2ccccc2Cl)n2nc(-c3ccccc3)nc2N1` (stereo not drawn), inactive: 74%.

Regarding `COc1cccc(-c2nc3c(C#N)c[nH]n3c2NC2CCC(C)CC2)c1` (stereo not drawn), the survival was active: 29%. With `COc1ccc(CCNC(=O)c2ccc(Cn3c(SCC(=O)NCCC(C)C)nc4cc5c(cc4c3=O)OCO5)cc2)cc1OC` the figure was inactive: 120%. With `O=C(NCc1ccccc1)c1ncn[nH]1` the figure was inactive: 80%; with `Clc1cccc(-n2ncc3c(NCCCN4CCOCC4)ncnc32)c1`, inactive: 94%.
